Our source for the binding signal (log fluorescence intensity) values is article PMC6602471.

The list shows a part of the results. At the low end of the ranking the order means little.

The target of the test is T1, ETS1 (UniProt P14921).
T1 sequence: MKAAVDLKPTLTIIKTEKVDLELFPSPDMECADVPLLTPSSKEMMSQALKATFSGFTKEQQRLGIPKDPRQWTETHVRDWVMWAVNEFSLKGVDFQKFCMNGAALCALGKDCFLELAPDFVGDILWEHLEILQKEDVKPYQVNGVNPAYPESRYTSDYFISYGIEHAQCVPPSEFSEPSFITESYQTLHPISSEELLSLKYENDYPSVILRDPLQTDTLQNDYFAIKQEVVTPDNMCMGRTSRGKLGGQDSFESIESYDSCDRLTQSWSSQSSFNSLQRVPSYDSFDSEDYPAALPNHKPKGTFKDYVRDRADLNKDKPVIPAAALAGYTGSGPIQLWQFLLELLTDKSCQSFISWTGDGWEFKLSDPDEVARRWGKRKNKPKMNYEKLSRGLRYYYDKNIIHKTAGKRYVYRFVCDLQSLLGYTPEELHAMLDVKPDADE
The test is described as follows: custom PBM. The settings on record: custom protein-binding microarray; buffer, salt, pH and temperature not stated; high values mean tight binding; double strand, one strand shown.
On to “TCCGGCTACCAGCTCCACCCACTTCAGGCCTTGTATGTCTTGATTCGCTTGACGCTGCTG”, for which the binding signal (log fluorescence intensity) is 8.26. Next, “CTGGTACTTGACCCAACTCTGCCACGTGGGTCGTTTGTCTTGATTCGCTTGACGCTGCTG”: 8.09; “TAAAGGGAAGACGGTTGTGGTACTTCCGGGTATTAAGTCTTGATTCGCTTGACGCTGCTG”: 11.5. Turning to “GGAAAAAGACCCAGGGTAACACCGGAAGTGGGCTTAGTCTTGATTCGCTTGACGCTGCTG”, the binding signal (log fluorescence intensity) was found to be 12. For the sequence “GATTAATTTCTGCCCTTATTCGGACGTGCCATAACAGTCTTGATTCGCTTGACGCTGCTG”, the binding signal (log fluorescence intensity) amounted to 8.29.

As to “CACAATTTTTACAGTAATGTAGCACGCCTAACTCCTGTCTTGATTCGCTTGACGCTGCTG”, the binding signal (log fluorescence intensity) is 8.15. Next, “TCCGGCTACCAGCTCCACCCACTTCACGCCTTGTAGGTCTTGATTCGCTTGACGCTGCTG”: 8.08; “GGAAAAAGGCCCAGGGTAACACCAGAAGTGGGCTTAGTCTTGATTCGCTTGACGCTGCTG”: 8.28. With “CACAATTTTTACAGTAATGTAGCGCGCGTAACTCCTGTCTTGATTCGCTTGACGCTGCTG”, the binding signal (log fluorescence intensity) came out at 8.26. In the case of “GTGTATAGGATCCCATCCAACACACGTGTTAAAAAGGTCTTGATTCGCTTGACGCTGCTG” it was 8.07. Next, “CGCAATTTTTACAGTAATGTAGCACGCGTAACTCCTGTCTTGATTCGCTTGACGCTGCTG”: 8.34; “TGTCGGGTAAGGGAATGTAGATCACGTGAATAAAAAGTCTTGATTCGCTTGACGCTGCTG”: 8.28. Turning to “TACTGACTTGTATATGCGAATGCACATGAATAGACCGTCTTGATTCGCTTGACGCTGCTG”, the binding signal (log fluorescence intensity) is 8.14. As to “GTGTATAGGATCCCATCCAACACACGTGTTAAAATAGTCTTGATTCGCTTGACGCTGCTG”, the binding signal (log fluorescence intensity) was 8.36. With “TCCGGATACCAGCTCCACCCACTTCAGGCCTTGTAGGTCTTGATTCGCTTGACGCTGCTG”, the binding signal (log fluorescence intensity) stood at 8.36. In the case of “TGTCTGGTAAGGGAATGTAGATCACGTGAATGAAAAGTCTTGATTCGCTTGACGCTGCTG” it was 8.43.

“GATTAATTTCTGCCCTTATACGCACGTGCCATAACAGTCTTGATTCGCTTGACGCTGCTG”: the binding signal (log fluorescence intensity) turned out to be 8.05. Next, “CAGCATAGTACTTCTTCCCTGAAGCAATTGATAACCGTCTTGATTCGCTTGACGCTGCTG”: 8.23; “CTGGGACTTGACCCAACTCTGCCACGCGGGTCGTTTGTCTTGATTCGCTTGACGCTGCTG”: 8.26; “CAGCATAGGCCTTCTTCCCTGAAGCAATTGATAACCGTCTTGATTCGCTTGACGCTGCTG”: 8.15. For “TCCGGCTACCAGTTCCACCCACTTCAGGCCTTGTAGGTCTTGATTCGCTTGACGCTGCTG”, the binding signal (log fluorescence intensity) was 8.32.

“CGGAAGTGTCGTAAACGGCGGATATCCGGTTCTTCTGTCTTGATTCGCTTGACGCTGCTG”: the binding signal (log fluorescence intensity) amounted to 12.4. Next, “TCCGGCTACCAGCTCCACCCACTTCGGGCCTTGTAGGTCTTGATTCGCTTGACGCTGCTG”: 8.02; “TAGCATAGGACTTCTTCCCTGAAGCAATTGATAACCGTCTTGATTCGCTTGACGCTGCTG”: 8.12.

Turning to “CGGAAGTGTCGTAATCGTCGGATATCCGGTTCTTCTGTCTTGATTCGCTTGACGCTGCTG”, the binding signal (log fluorescence intensity) was 11.8. Next, “CACAATTTTTACAGTAATGTAGCAAGCGTAACTCCTGTCTTGATTCGCTTGACGCTGCTG”: 8.17. For the sequence “CACAATTTTTACAGTGATGTAGCACGCGTAACTCCTGTCTTGATTCGCTTGACGCTGCTG”, the binding signal (log fluorescence intensity) was determined as 8.31. In the case of “CGGAAGTGTCGTAAACGTCGGATAGCCGGTTCTTCTGTCTTGATTCGCTTGACGCTGCTG” it was 8.18; in that of “GTGTATCGGATCCCATCCAACACACGTGTTAAAATGGTCTTGATTCGCTTGACGCTGCTG”, 8.32. Next, “TACAATTTTTACAGTAATGTAGCACGCGTAACTCCTGTCTTGATTCGCTTGACGCTGCTG”: 8.23; “TCCGGCTACCAGCGCCACCCACTTCAGGCCTTGTAGGTCTTGATTCGCTTGACGCTGCTG”: 8.26; “CAGCATAGGACTTCTCCCCTGAAGCAATTGATAACCGTCTTGATTCGCTTGACGCTGCTG”: 8.24. For “GATTAATTTCTGCCCTTAATCGCACGTGCCATAACAGTCTTGATTCGCTTGACGCTGCTG”, the binding signal (log fluorescence intensity) amounted to 8.13. Next, “GCTGTTGCGGTGCATACCCCACCGGATGTGACCCCGGTCTTGATTCGCTTGACGCTGCTG”: 10.3; “CTGGGACTTGTCCCAACTCTGCCACGTGGGTCGTTTGTCTTGATTCGCTTGACGCTGCTG”: 8.25; “TCCGGCTACCAGCTCCACCCATTTCAGGCCTTGTAGGTCTTGATTCGCTTGACGCTGCTG”: 8.26. For “TACTGACTTATATATGCGAATGCACATGAATAGACTGTCTTGATTCGCTTGACGCTGCTG”, the binding signal (log fluorescence intensity) turned out to be 8.24. In the case of “GGAAAAACGCCCAGGGTAACACCGGAAGTGGGCTTAGTCTTGATTCGCTTGACGCTGCTG” it was 12.1; in that of “CTGTGACTTGACCCAACTCTGCCACGTGGGTCGTTTGTCTTGATTCGCTTGACGCTGCTG”, 8.31.

For the sequence “GGAAAAAGGCCCAGGGTAACAGCGGAAGTGGGCTTAGTCTTGATTCGCTTGACGCTGCTG”, the binding signal (log fluorescence intensity) was 10.2. In the case of “TCCGGCTACCAGCTCGACCCACTTCAGGCCTTGTAGGTCTTGATTCGCTTGACGCTGCTG” it was 8.17.

As to “GCTGCCGCGGTGCATACCCCACCGGATGTGACCCCGGTCTTGATTCGCTTGACGCTGCTG”, the binding signal (log fluorescence intensity) amounted to 10.7. In the case of “GTGTATAGGAGCCCATCCAACACACGTGTTAAAATGGTCTTGATTCGCTTGACGCTGCTG” it was 8.2; in that of “TGTCGGGTAAGTGAATGTAGATCACGTGAATGAAAAGTCTTGATTCGCTTGACGCTGCTG”, 8.14; in that of “GTGTATAGGATCCCATCCAACGCACGTGTTAAAATGGTCTTGATTCGCTTGACGCTGCTG”, 8.28. In the case of “GATTAATTTCTGCCCTTATTCACACGTGCCATAACAGTCTTGATTCGCTTGACGCTGCTG” it was 8.22. In the case of “TCCGGCTACCCGCTCCACCCACTTCAGGCCTTGTAGGTCTTGATTCGCTTGACGCTGCTG” it was 8.11; in that of “CATAATTTTTACAGTAATGTAGCACGCGTAACTCCTGTCTTGATTCGCTTGACGCTGCTG”, 8.23. As for “TCCGGCTACCAGCTCCACCCACTTCAGGCTTTGTAGGTCTTGATTCGCTTGACGCTGCTG”, the binding signal (log fluorescence intensity) came to 8.22. Consider “TCCGGCTACCAGCTCCACGCACTTCAGGCCTTGTAGGTCTTGATTCGCTTGACGCTGCTG”, for which the binding signal (log fluorescence intensity) was determined as 8.13.

Consider “TCCGGCTACCATCTCCACCCACTTCAGGCCTTGTAGGTCTTGATTCGCTTGACGCTGCTG”, for which the binding signal (log fluorescence intensity) stood at 8.2. As for “CTGGGACTTGACCCAACCCTGCCACGTGGGTCGTTTGTCTTGATTCGCTTGACGCTGCTG”, the binding signal (log fluorescence intensity) was 8.32.
